In publication PMC12136788:
The list shows a part of the results.

B1: chr10:22824096:22824097:-_ENSG00000150867_ENST00000376573|hu_mus|motif|central (ssRNA)
RNA: GGGAGUUCUACAGUCCGACGAUCUUAUUGGGAUGACAGAGAUGGUUACAGACAAAAACCAAAGCAGUUUUGUAAACUUCGGAAAGCAUACAGAUUGGCCACAGAGGAAAUGGUUACUCAGAUCAUGUAUAUGUACCUUCAUUUCAACAGAGGAUUGAGCAUCA
B2: chr3:52741720:52741721:+_ENSG00000114902_ENST00000602728|hu_hu|FALSE|FALSE (ssRNA)
RNA: GGGAGUUCUACAGUCCGACGAUCAUAGAUGGGCCAUGGAGGAAGUGUCAGCAAACAUGAAAAAGCAAAUCCGGCCAUAACUAUAUAGACAGUCCACCCGAACUGUUCAGCCACGUACCCGUAGAUAAAUCCAACUAUUGCAGACAACAGAGGAUUGAGCAUCA
B3: 9459372_9459492_2542_CDS_ENSG00000205339_ENST00000379719|human|control|control (ssRNA)
RNA: GGGAGUUCUACAGUCCGACGAUCCUGUGUAAUAAAAUGAUUUGUAACUGGUUCAACAUUAUUAGGGAAGCGAAGAUUUUCUAAGGUAUUGAGUAGUAGGUGUGGAUUAUAAUACAAAGCUGCAAUUGCAACUUGCAGACACAUCAACAGAGGAUUGAGCAUCA
B4: chr11:60966614:60966615:-_ENSMUSG00000042506_ENSMUST00000041683|mus_mus|motif|central (ssRNA)
RNA: GGGAGUUCUACAGUCCGACGAUCGAGCAGCGGCCGCUUAGUUUUGCCACAGCUAUGUCAUUCCAUCGCAAUUCGCGGGCGGAGGAGCUGGGCUGGGCCCUGUACUGCUCUUUUAUAGCCUGUAAGUGAAAAAACAAAAUCUUACAACAGAGGAUUGAGCAUCA
B5: 38355041_38355161_2037_CDS_ENSMUSG00000044864_ENSMUST00000156038|mouse|control|control (ssRNA)
RNA: GGGAGUUCUACAGUCCGACGAUCAUCAAUCAGGAGGCUCACGACUGACGCGUGCCCUUUGCUUGCAGGCACACAGAGCGCGGCCACGGAGAGGGCUGUCCUGCCGUCCACGUCCUCGUGGUUUACCUCUGCGCCAUGGUCCAGCAACAGAGGAUUGAGCAUCA
B6: chr3:39104626:39104627:+_ENSG00000114742_ENST00000302313|hu_mus|FALSE|FALSE (ssRNA)
RNA: GGGAGUUCUACAGUCCGACGAUCGUGCUGAUUGACACUCCAUAUUCUUAUGAUGGAGUCUCGACCUGCUGUGAAGAGUCUGUUGAGUGCUGGGUCCAGUUGCAGGGCAUUGACUCCAUUCCGAUUGUAUUUCUCCACUUCAUCCAACAGAGGAUUGAGCAUCA

The binders below were run against T1, UNK ZnF1-3 (human, UniProt Q9C0B0 31-174) (assay: nsRBNS (natural sequence RNA bind-n-seq); RBNS binding buffer (assumed for nsRBNS): 25 mM Tris pH 7.5, 150 mM KCl, 3 mM MgCl2, 0.01% Triton X-100, 500 ug/ml BSA, 20 U/ml SUPERase-In, 4 C; UNK is unkempt and MSI1 is Musashi-1; names of the RNAs are library labels; protein concentration not given here; high values mean tight binding).
T1 sequence: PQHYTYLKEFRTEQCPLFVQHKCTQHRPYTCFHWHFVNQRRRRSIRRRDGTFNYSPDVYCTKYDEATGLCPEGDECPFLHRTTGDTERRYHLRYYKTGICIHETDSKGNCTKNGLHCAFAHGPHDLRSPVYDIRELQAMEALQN

Binder	binding signal
B1	1.94 enrichment R
B2	1.84 enrichment R
B3	1.62 enrichment R
B4	0.776 enrichment R
B5	0.515 enrichment R
B6	0.438 enrichment R
